{"source": "patent US11793801B2", "about": "“Treatment of pain and neurological conditions” (BioCorRx, Inc., priority 2020, dated 2023)", "target": "ORL1 (NOP) receptor (Homo sapiens, UniProt P41146)", "sequence (P41146 whole entry)": "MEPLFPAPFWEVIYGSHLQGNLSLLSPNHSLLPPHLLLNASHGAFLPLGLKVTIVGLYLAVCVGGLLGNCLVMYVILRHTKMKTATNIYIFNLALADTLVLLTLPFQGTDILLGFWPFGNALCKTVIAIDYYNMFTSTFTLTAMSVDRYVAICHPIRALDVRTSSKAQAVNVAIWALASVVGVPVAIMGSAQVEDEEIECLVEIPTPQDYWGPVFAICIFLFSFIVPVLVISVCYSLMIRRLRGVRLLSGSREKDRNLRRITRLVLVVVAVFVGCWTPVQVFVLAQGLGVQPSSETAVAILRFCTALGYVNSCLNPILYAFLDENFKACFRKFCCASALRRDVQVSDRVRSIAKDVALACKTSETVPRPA", "details": "in vitro", "note": "Like-named read-outs stand apart in the source and are kept apart here.", "data": [{"smiles": "CCC(=O)NC1CC(C)N(CCc2ccccc2)CC1C", "note": "(centres unmarked) [Compound 1, N-[2,5-dimethyl-1-(2-phenylethyl)piperidin-4-yl]propanamide]", "values": [{"measurement": "Receptor ORL1 (NOP): mode of action", "value": "Antagonist"}, {"measurement": "Receptor ORL1 (NOP): mode of action", "setting": "listed as compound 1", "value": "antagonist"}]}]}
